Results as given in the supplement of paper PMC10369915.
This is one part of the list. Rule as the data show it: active = 3.2 or more and inactive = the rest. Only a few entries rise above the background.

Experiments:
Test in all cases: enrichment score (SH2-bound / input frequency) (ratio); bacterial display of known human phosphotyrosine sites (pTyr-Var adds point mutants) read by sequencing; higher = stronger binding; tyrosines were phosphorylated by kinases first
Conditions in all cases: peptide library: pTyr-Var
SHP2 C-SH2 domain E139D = biological target: SHP2 C-SH2 domain E139D
[1] = biological target: SHP2 C-SH2 domain wild-type
SHP2 N-SH2 domain L43F = biological target: SHP2 N-SH2 domain L43F
SHP2 N-SH2 domain T42A = biological target: SHP2 N-SH2 domain T42A
SHP2 N-SH2 domain T52S = biological target: SHP2 N-SH2 domain T52S
[2] = biological target: SHP2 N-SH2 domain wild-type

Measured: enrichment score
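Also: displayed peptides selected on beads carrying the immobilized SH2 domain, with library peptides lacking any tyrosine serving as negative controls.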

SVTCTYSPARN [TP53_Y126_L130R]
inactive: SHP2 C-SH2 domain E139D 0.882 | [1] 1.11 | SHP2 N-SH2 domain L43F 0.81 | SHP2 N-SH2 domain T42A 0.621 | SHP2 N-SH2 domain T52S 0.801 | [2] 1.09

SVTCTYSPAVN [TP53_Y126_L130V]
inactive: SHP2 C-SH2 domain E139D 0.885 | [1] 1.2 | SHP2 N-SH2 domain L43F 1.05 | SHP2 N-SH2 domain T42A 0.703 | SHP2 N-SH2 domain T52S 0.781 | [2] 1.28

SVTCTYSAALN [TP53_Y126_P128A]
inactive: SHP2 C-SH2 domain E139D 0.584 | [1] 0.918 | SHP2 N-SH2 domain L43F 0.809 | SHP2 N-SH2 domain T42A 0.712 | SHP2 N-SH2 domain T52S 0.673 | [2] 0.957

SVTCTYSSALN [TP53_Y126_P128S]
inactive: SHP2 C-SH2 domain E139D 0.565 | [1] 0.74 | SHP2 N-SH2 domain L43F 0.643 | SHP2 N-SH2 domain T42A 0.603 | SHP2 N-SH2 domain T52S 0.591 | [2] 0.798

SVTCKYSPALN [TP53_Y126_T125K]
inactive: SHP2 C-SH2 domain E139D 0.632 | [1] 0.68 | SHP2 N-SH2 domain L43F 0.615 | SHP2 N-SH2 domain T42A 0.477 | SHP2 N-SH2 domain T52S 0.543 | [2] 0.688

SVTCMYSPALN [TP53_Y126_T125M]
inactive: SHP2 C-SH2 domain E139D 0.733 | [1] 0.852 | SHP2 N-SH2 domain L43F 0.993 | SHP2 N-SH2 domain T42A 0.897 | SHP2 N-SH2 domain T52S 0.915 | [2] 1.25

SLTCTYSPALN [TP53_Y126_V122L]
inactive: SHP2 C-SH2 domain E139D 1 | [1] 1.36 | SHP2 N-SH2 domain L43F 1 | SHP2 N-SH2 domain T42A 0.816 | SHP2 N-SH2 domain T52S 0.841 | [2] 1.74

SVVVPYEPPKV [TP53_Y220_E224K]
inactive: SHP2 C-SH2 domain E139D 0.719 | [1] 0.839 | SHP2 N-SH2 domain L43F 0.749 | SHP2 N-SH2 domain T42A 0.621 | SHP2 N-SH2 domain T52S 0.792 | [2] 0.77

SVVVCYEPPEV [TP53_Y220_P219C]
inactive: SHP2 C-SH2 domain E139D 0.818 | [1] 0.926 | SHP2 N-SH2 domain L43F 0.786 | SHP2 N-SH2 domain T42A 0.725 | SHP2 N-SH2 domain T52S 0.746 | [2] 0.899

SVVVSYEPPEV [TP53_Y220_P219S]
inactive: SHP2 C-SH2 domain E139D 0.778 | [1] 0.733 | SHP2 N-SH2 domain L43F 0.957 | SHP2 N-SH2 domain T42A 0.745 | SHP2 N-SH2 domain T52S 0.846 | [2] 0.851

SVVVPYEAPEV [TP53_Y220_P222A]
inactive: SHP2 C-SH2 domain E139D 0.779 | [1] 0.833 | SHP2 N-SH2 domain L43F 0.977 | SHP2 N-SH2 domain T42A 0.747 | SHP2 N-SH2 domain T52S 0.686 | [2] 0.886

SVVVPYELPEV [TP53_Y220_P222L]
inactive: SHP2 C-SH2 domain E139D 0.865 | [1] 0.807 | SHP2 N-SH2 domain L43F 1 | SHP2 N-SH2 domain T42A 0.835 | SHP2 N-SH2 domain T52S 1.01 | [2] 0.927

SVVVPYEPREV [TP53_Y220_P223R]
inactive: SHP2 C-SH2 domain E139D 0.966 | [1] 1.18 | SHP2 N-SH2 domain L43F 1.24 | SHP2 N-SH2 domain T42A 1.03 | SHP2 N-SH2 domain T52S 1.04 | [2] 1.03

CVVVPYEPPEV [TP53_Y220_S215C]
inactive: SHP2 C-SH2 domain E139D 1.13 | [1] 1.39 | SHP2 N-SH2 domain L43F 0.914 | SHP2 N-SH2 domain T42A 0.642 | SHP2 N-SH2 domain T52S 0.724 | [2] 1.37

TVVVPYEPPEV [TP53_Y220_S215T]
inactive: SHP2 C-SH2 domain E139D 1.1 | [1] 1.02 | SHP2 N-SH2 domain L43F 0.789 | SHP2 N-SH2 domain T42A 0.567 | SHP2 N-SH2 domain T52S 1 | [2] 0.849

SAVVPYEPPEV [TP53_Y220_V216A]
inactive: SHP2 C-SH2 domain E139D 0.813 | [1] 0.612 | SHP2 N-SH2 domain L43F 0.792 | SHP2 N-SH2 domain T42A 0.606 | SHP2 N-SH2 domain T52S 0.703 | [2] 0.964

SGVVPYEPPEV [TP53_Y220_V216G]
inactive: SHP2 C-SH2 domain E139D 0.74 | [1] 0.551 | SHP2 N-SH2 domain L43F 0.724 | SHP2 N-SH2 domain T42A 0.66 | SHP2 N-SH2 domain T52S 0.62 | [2] 0.733

SVVLPYEPPEV [TP53_Y220_V218L]
inactive: SHP2 C-SH2 domain E139D 1.19 | [1] 0.997 | SHP2 N-SH2 domain L43F 1.1 | SHP2 N-SH2 domain T42A 0.831 | SHP2 N-SH2 domain T52S 1.02 | [2] 1.09

SVVVPYEPPEA [TP53_Y220_V225A]
inactive: SHP2 C-SH2 domain E139D 0.669 | [1] 0.601 | SHP2 N-SH2 domain L43F 0.761 | SHP2 N-SH2 domain T42A 0.573 | SHP2 N-SH2 domain T52S 0.667 | [2] 0.718

SVVVPYEPPED [TP53_Y220_V225D]
inactive: SHP2 C-SH2 domain E139D 0.705 | [1] 0.653 | SHP2 N-SH2 domain L43F 0.792 | SHP2 N-SH2 domain T42A 0.581 | SHP2 N-SH2 domain T52S 0.732 | [2] 0.649

SVVVPCEPPEV [TP53_Y220_Y220C]
inactive: SHP2 C-SH2 domain E139D 0.817 | [1] 0.872 | SHP2 N-SH2 domain L43F 0.931 | SHP2 N-SH2 domain T42A 0.931 | SHP2 N-SH2 domain T52S 0.774 | [2] 1.01

SVVVPFEPPEV [TP53_Y220_Y220F]
inactive: SHP2 C-SH2 domain E139D 0.787 | [1] 0.799 | SHP2 N-SH2 domain L43F 0.824 | SHP2 N-SH2 domain T42A 0.696 | SHP2 N-SH2 domain T52S 0.942 | [2] 1.08

SVVVPHEPPEV [TP53_Y220_Y220H]
inactive: SHP2 C-SH2 domain E139D 0.789 | [1] 0.802 | SHP2 N-SH2 domain L43F 0.843 | SHP2 N-SH2 domain T42A 0.602 | SHP2 N-SH2 domain T52S 0.843 | [2] 0.847

CTTIHYNYMCN [TP53_Y234]
active: SHP2 C-SH2 domain E139D 5.36 | [1] 6.27 | SHP2 N-SH2 domain L43F 4.05 | SHP2 N-SH2 domain T42A 3.63 | SHP2 N-SH2 domain T52S 4.26 | [2] 3.25

NTTIHYNFMCN [TP53_Y234_C229N_YF]
inactive: SHP2 C-SH2 domain E139D 0.776 | [1] 1 | SHP2 N-SH2 domain L43F 0.834 | SHP2 N-SH2 domain T42A 0.895 | SHP2 N-SH2 domain T52S 0.754 | [2] 1.02

RTTIHYNFMCN [TP53_Y234_C229R_YF]
inactive: SHP2 C-SH2 domain E139D 1.03 | [1] 1.16 | SHP2 N-SH2 domain L43F 1.06 | SHP2 N-SH2 domain T42A 1.16 | SHP2 N-SH2 domain T52S 1.24 | [2] 1.33

STTIHYNYMCN [TP53_Y234_C229S]
inactive: SHP2 C-SH2 domain E139D 0.823 | [1] 1.05 | SHP2 N-SH2 domain L43F 0.801 | SHP2 N-SH2 domain T42A 0.944 | SHP2 N-SH2 domain T52S 0.912 | [2] 0.975

FTTIHYNFMCN [TP53_Y234_C229Y_YF]
inactive: SHP2 C-SH2 domain E139D 2.05 | [1] 2.39 | SHP2 N-SH2 domain L43F 2.24 | SHP2 N-SH2 domain T42A 2.2 | SHP2 N-SH2 domain T52S 1.88 | [2] 2.31

CTTIHYNYMHN [TP53_Y234_C238H]
inactive: SHP2 C-SH2 domain E139D 1.72 | [1] 2 | SHP2 N-SH2 domain L43F 1.43 | SHP2 N-SH2 domain T42A 1.07 | SHP2 N-SH2 domain T52S 1.5 | [2] 1.75

CTTIHYNYMSN [TP53_Y234_C238S]
inactive: SHP2 C-SH2 domain E139D 1.33 | [1] 1.46 | SHP2 N-SH2 domain L43F 1.71 | SHP2 N-SH2 domain T42A 1.12 | SHP2 N-SH2 domain T52S 1.56 | [2] 1.2

CTTIHYNFMSN [TP53_Y234_C238S_YF]
inactive: SHP2 C-SH2 domain E139D 1.49 | [1] 1.62 | SHP2 N-SH2 domain L43F 1.56 | SHP2 N-SH2 domain T42A 1.26 | SHP2 N-SH2 domain T52S 1.43 | [2] 1.46

CTTIQYNYMCN [TP53_Y234_H233Q]
active: SHP2 C-SH2 domain E139D 4.42 | [1] 3.57 | SHP2 N-SH2 domain L43F 4.02 | SHP2 N-SH2 domain T42A 3.56 | SHP2 N-SH2 domain T52S 3.62 | [2] 3.44

CTTIFYNFMCN [TP53_Y234_H233Y_YF]
inactive: SHP2 N-SH2 domain T42A 2.43
active: SHP2 C-SH2 domain E139D 3.88 | [1] 3.63 | SHP2 N-SH2 domain L43F 3.9 | SHP2 N-SH2 domain T52S 3.23 | [2] 3.48

CTTFHYNFMCN [TP53_Y234_I232F_YF]
active: SHP2 C-SH2 domain E139D 3.28
inactive: [1] 2.44 | SHP2 N-SH2 domain L43F 3.14 | SHP2 N-SH2 domain T42A 2.67 | SHP2 N-SH2 domain T52S 2.54 | [2] 2.57

CTTLHYNYMCN [TP53_Y234_I232L]
inactive: SHP2 N-SH2 domain T42A 2.65 | SHP2 N-SH2 domain T52S 3.18 | [2] 2.98
active: SHP2 C-SH2 domain E139D 4.21 | [1] 5.14 | SHP2 N-SH2 domain L43F 3.28

CTTIHYNYRCN [TP53_Y234_M237R]
active: SHP2 C-SH2 domain E139D 3.43 | [1] 3.53 | SHP2 N-SH2 domain T52S 3.48 | [2] 3.36
inactive: SHP2 N-SH2 domain L43F 3.07 | SHP2 N-SH2 domain T42A 2.66

CTTIHYDYMCN [TP53_Y234_N235D]
active: SHP2 C-SH2 domain E139D 3.79 | [1] 3.38 | SHP2 N-SH2 domain L43F 4.34 | SHP2 N-SH2 domain T52S 3.64
inactive: SHP2 N-SH2 domain T42A 3.08 | [2] 2.57

CTTIHYIYMCN [TP53_Y234_N235I]
inactive: SHP2 C-SH2 domain E139D 1.54 | [1] 1.66 | SHP2 N-SH2 domain L43F 1.54 | SHP2 N-SH2 domain T42A 1.36 | SHP2 N-SH2 domain T52S 1.44 | [2] 1.63
